Data: paper PMC8529494
No constants are given. Whether binding was seen depends on the method and setting. Binding seen in cells or lysates may run through a third protein. Some binding calls cover weakened binding; strength is not graded here.

Chains of the proteins cited; added tags and fusions are not shown. Lines headed by an entry give the natural chain unless they say otherwise; changes in a name come on top. A line that says so, or that is headed by a name, gives the form on record, which may keep a tag or linker.
UniProt P84022: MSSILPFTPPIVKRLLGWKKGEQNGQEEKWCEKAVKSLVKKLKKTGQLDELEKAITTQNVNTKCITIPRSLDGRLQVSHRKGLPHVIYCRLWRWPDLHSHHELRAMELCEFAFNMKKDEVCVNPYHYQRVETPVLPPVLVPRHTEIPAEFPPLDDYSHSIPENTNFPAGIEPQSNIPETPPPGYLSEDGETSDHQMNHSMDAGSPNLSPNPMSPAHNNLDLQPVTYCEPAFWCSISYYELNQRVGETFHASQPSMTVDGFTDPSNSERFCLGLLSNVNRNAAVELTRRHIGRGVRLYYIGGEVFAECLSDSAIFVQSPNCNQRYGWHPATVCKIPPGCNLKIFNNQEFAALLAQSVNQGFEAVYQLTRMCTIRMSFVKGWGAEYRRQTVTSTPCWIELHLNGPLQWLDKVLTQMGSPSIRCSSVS
HA-tagged SMAD3 K20/117R (2KR), overexpressed in MDA-MB-231 and BT-549 cells (P84022, form named): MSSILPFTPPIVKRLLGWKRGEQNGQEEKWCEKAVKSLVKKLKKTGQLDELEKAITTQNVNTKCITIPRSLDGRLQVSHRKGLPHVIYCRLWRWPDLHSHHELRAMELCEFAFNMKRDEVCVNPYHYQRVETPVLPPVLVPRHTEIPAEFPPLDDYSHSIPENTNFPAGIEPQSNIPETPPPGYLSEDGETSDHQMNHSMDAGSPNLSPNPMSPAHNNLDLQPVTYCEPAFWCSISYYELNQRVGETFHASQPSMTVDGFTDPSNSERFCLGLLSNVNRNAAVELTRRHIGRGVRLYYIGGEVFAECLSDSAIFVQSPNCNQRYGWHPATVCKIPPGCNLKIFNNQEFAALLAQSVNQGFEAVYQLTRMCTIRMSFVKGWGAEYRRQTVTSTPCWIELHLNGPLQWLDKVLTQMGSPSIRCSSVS
HA-tagged SMAD3 K20/117Q (2KQ), overexpressed in MDA-MB-231 and BT-549 cells (P84022, form named): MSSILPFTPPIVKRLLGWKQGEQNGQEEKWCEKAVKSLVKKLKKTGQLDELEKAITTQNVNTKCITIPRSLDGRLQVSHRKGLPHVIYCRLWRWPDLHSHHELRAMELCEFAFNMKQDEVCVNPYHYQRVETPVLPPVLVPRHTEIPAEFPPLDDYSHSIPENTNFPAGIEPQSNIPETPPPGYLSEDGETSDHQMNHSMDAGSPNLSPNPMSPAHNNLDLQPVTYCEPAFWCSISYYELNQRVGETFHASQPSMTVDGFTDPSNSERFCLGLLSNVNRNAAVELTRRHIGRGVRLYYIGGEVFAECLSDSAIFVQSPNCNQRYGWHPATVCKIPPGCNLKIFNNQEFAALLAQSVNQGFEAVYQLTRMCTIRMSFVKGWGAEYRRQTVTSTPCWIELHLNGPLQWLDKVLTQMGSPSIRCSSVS
UniProt Q13485: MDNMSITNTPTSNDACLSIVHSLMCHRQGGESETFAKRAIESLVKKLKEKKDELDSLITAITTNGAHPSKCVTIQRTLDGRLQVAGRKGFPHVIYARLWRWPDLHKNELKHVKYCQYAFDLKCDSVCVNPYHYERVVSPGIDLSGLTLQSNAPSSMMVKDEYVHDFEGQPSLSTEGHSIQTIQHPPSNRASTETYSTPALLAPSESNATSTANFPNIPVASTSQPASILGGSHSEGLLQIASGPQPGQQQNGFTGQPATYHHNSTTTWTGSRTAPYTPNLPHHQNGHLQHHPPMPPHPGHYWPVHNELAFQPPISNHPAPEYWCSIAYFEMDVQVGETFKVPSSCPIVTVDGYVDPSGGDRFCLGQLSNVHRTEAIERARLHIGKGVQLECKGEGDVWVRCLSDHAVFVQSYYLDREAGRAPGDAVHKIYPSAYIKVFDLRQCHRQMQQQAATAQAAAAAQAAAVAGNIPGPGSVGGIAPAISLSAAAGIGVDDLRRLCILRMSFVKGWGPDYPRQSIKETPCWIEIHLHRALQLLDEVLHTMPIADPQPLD
UniProt Q15796: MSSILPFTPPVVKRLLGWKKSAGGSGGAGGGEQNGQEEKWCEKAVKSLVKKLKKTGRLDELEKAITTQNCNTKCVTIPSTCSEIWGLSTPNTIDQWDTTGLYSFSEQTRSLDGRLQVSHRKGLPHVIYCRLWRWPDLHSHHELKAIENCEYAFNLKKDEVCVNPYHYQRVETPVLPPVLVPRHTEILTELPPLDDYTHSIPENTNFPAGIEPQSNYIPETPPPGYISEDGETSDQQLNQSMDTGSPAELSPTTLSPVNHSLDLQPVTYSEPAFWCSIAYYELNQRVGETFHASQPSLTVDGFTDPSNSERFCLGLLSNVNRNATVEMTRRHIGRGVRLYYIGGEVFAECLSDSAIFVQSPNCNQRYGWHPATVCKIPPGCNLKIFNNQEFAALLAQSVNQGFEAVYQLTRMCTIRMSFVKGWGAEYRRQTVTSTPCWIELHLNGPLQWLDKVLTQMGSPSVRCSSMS

Experiments:
[1] = biological target: SMAD3 K20/117R, acetylation-deficient mutant, in HEK293T cells (UniProt P84022); test: co-IP; IP and western blot of HEK293T cells (Figure 4C stimulated by TGF-β1; Figure 4D SMAD3 WT, 2KQ or 2KR)
[2] = biological target: SMAD3 K20/117Q, acetylation-mimetic mutant, in HEK293T cells (UniProt P84022); test: as above
[3] = biological target: SMAD3 wild type, exogenous, in HEK293T cells (UniProt P84022); test: as above
SMAD4 in HEK293T cells = SMAD4 in HEK293T cells (UniProt Q13485); test: as above
SMAD2 in HEK293T cells = SMAD2 in HEK293T cells (UniProt Q15796); test: as above
[4] = biological target: SMAD3, endogenous (human (endogenous in MDA-MB-231 and BT-549)) (UniProt P84022); test: co-IP; IP and western blot of MDA-MB-231 and BT-549 cells (Figure 4A with TGF-β1 and TRIM24 overexpression; Figure 4E with SMAD3 WT, 2KQ or 2KR; Figure 4F MDA-MB-231/tetO-shKAT6A with or without Dox; Figure 4G MDA-MB-231)
[5] = biological target: HA-tagged SMAD3 K20/117Q (2KQ), overexpressed in MDA-MB-231 and BT-549 cells (UniProt P84022); test: as above
[6] = biological target: HA-tagged SMAD3 WT, overexpressed in MDA-MB-231 and BT-549 cells (UniProt P84022); test: as above
[7] = biological target: HA-tagged SMAD3 K20/117R (2KR), overexpressed in MDA-MB-231 and BT-549 cells (UniProt P84022); test: as above

binding [1] | binding [2] | binding [3] | binding (SMAD4 in HEK293T cells) | binding (SMAD2 in HEK293T cells) | binding [4] | binding [5] | binding [6] | binding [7] | Binder
binds | binds | binds | no binding | no binding |  |  |  |  | TRIM24 in HEK293T cells (protein, UniProt O15164 1-1050) MEVAVEKAVAAAAAASAAASGGPSAAPSGENEAESRQGPDSERGGEAARLNLLDTCAVCHQNIQSRAPKLLPCLHSFCQRCLPAPQRYLMLPAPMLGSAETPPPVPAPGSPVSGSSPFATQVGVIRCPVCSQECAERHIIDNFFVKDTTEVPSSTVEKSNQVCTSCEDNAEANGFCVECVEWLCKTCIRAHQRVKFTKDHTVRQKEEVSPEAVGVTSQRPVFCPFHKKEQLKLYCETCDKLTCRDCQLLEHKEHRYQFIEEAFQNQKVIIDTLITKLMEKTKYIKFTGNQIQNRIIEVNQNQKQVEQDIKVAIFTLMVEINKKGKALLHQLESLAKDHRMKLMQQQQEVAGLSKQLEHVMHFSKWAVSSGSSTALLYSKRLITYRLRHLLRARCDASPVTNNTIQFHCDPSFWAQNIINLGSLVIEDKESQPQMPKQNPVVEQNSQPPSGLSSNQLSKFPTQISLAQLRLQHMQQQVMAQRQQVQRRPAPVGLPNPRMQGPIQQPSISHQQPPPRLINFQNHSPKPNGPVLPPHPQQLRYPPNQNIPRQAIKPNPLQMAFLAQQAIKQWQISSGQGTPSTTNSTSSTPSSPTITSAAGYDGKAFGSPMIDLSSPVGGSYNLPSLPDIDCSSTIMLDNIVRKDTNIDHGQPRPPSNRTVQSPNSSVPSPGLAGPVTMTSVHPPIRSPSASSVGSRGSSGSSSKPAGADSTHKVPVVMLEPIRIKQENSGPPENYDFPVVIVKQESDEESRPQNANYPRSILTSLLLNSSQSSTSEETVLRSDAPDSTGDQPGLHQDNSSNGKSEWLDPSQKSPLHVGETRKEDDPNEDWCAVCQNGGELLCCEKCPKVFHLSCHVPTLTNFPSGEWICTFCRDLSKPEVEYDCDAPSHNSEKKKTEGLVKLTPIDKRKCERLLLFLYCHEMSLAFQDPVPLTVPDYYKIIKNPMDLSTIKKRLQEDYSMYSKPEDFVADFRLIFQNCAEFNEPDSEVANAGIKLENYFEELLKNLYPEKRFPKPEFRNESEDNKFSDDSDDDFVQPRKKRLKSIEERQLLK
 |  |  |  |  | binds | binds | binds | binds | TRIM24 in MDA-MB-231 and BT-549 cells (protein, UniProt O15164 1-1050) MEVAVEKAVAAAAAASAAASGGPSAAPSGENEAESRQGPDSERGGEAARLNLLDTCAVCHQNIQSRAPKLLPCLHSFCQRCLPAPQRYLMLPAPMLGSAETPPPVPAPGSPVSGSSPFATQVGVIRCPVCSQECAERHIIDNFFVKDTTEVPSSTVEKSNQVCTSCEDNAEANGFCVECVEWLCKTCIRAHQRVKFTKDHTVRQKEEVSPEAVGVTSQRPVFCPFHKKEQLKLYCETCDKLTCRDCQLLEHKEHRYQFIEEAFQNQKVIIDTLITKLMEKTKYIKFTGNQIQNRIIEVNQNQKQVEQDIKVAIFTLMVEINKKGKALLHQLESLAKDHRMKLMQQQQEVAGLSKQLEHVMHFSKWAVSSGSSTALLYSKRLITYRLRHLLRARCDASPVTNNTIQFHCDPSFWAQNIINLGSLVIEDKESQPQMPKQNPVVEQNSQPPSGLSSNQLSKFPTQISLAQLRLQHMQQQVMAQRQQVQRRPAPVGLPNPRMQGPIQQPSISHQQPPPRLINFQNHSPKPNGPVLPPHPQQLRYPPNQNIPRQAIKPNPLQMAFLAQQAIKQWQISSGQGTPSTTNSTSSTPSSPTITSAAGYDGKAFGSPMIDLSSPVGGSYNLPSLPDIDCSSTIMLDNIVRKDTNIDHGQPRPPSNRTVQSPNSSVPSPGLAGPVTMTSVHPPIRSPSASSVGSRGSSGSSSKPAGADSTHKVPVVMLEPIRIKQENSGPPENYDFPVVIVKQESDEESRPQNANYPRSILTSLLLNSSQSSTSEETVLRSDAPDSTGDQPGLHQDNSSNGKSEWLDPSQKSPLHVGETRKEDDPNEDWCAVCQNGGELLCCEKCPKVFHLSCHVPTLTNFPSGEWICTFCRDLSKPEVEYDCDAPSHNSEKKKTEGLVKLTPIDKRKCERLLLFLYCHEMSLAFQDPVPLTVPDYYKIIKNPMDLSTIKKRLQEDYSMYSKPEDFVADFRLIFQNCAEFNEPDSEVANAGIKLENYFEELLKNLYPEKRFPKPEFRNESEDNKFSDDSDDDFVQPRKKRLKSIEERQLLK
